Measured values as given in paper PMC6104826.
No constants are given. Whether binding was seen depends on the method and setting. For some assays here: In cells and extracts the contact can be indirect. Some binding calls cover weakened binding; strength is not graded here.

The chains behind the UniProt entries cited, without tags or fusion partners. Where a name states a change or a piece, a line headed by the entry shows the natural chain unless it says otherwise. Residues count along the entry.
UniProt Q14896, residues 817-1274: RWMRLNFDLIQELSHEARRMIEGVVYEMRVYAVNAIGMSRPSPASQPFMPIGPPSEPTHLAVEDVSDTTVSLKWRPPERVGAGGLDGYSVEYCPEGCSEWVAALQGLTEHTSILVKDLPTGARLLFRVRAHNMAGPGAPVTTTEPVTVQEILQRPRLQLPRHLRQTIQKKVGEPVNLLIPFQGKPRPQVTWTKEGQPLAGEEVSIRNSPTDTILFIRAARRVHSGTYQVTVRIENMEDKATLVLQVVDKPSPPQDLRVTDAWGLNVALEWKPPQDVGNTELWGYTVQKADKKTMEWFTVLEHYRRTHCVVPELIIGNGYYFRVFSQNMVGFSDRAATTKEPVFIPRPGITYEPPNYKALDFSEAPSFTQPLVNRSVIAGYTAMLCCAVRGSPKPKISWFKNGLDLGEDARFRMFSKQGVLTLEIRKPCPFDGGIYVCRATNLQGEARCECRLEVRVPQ
UniProt Q92736: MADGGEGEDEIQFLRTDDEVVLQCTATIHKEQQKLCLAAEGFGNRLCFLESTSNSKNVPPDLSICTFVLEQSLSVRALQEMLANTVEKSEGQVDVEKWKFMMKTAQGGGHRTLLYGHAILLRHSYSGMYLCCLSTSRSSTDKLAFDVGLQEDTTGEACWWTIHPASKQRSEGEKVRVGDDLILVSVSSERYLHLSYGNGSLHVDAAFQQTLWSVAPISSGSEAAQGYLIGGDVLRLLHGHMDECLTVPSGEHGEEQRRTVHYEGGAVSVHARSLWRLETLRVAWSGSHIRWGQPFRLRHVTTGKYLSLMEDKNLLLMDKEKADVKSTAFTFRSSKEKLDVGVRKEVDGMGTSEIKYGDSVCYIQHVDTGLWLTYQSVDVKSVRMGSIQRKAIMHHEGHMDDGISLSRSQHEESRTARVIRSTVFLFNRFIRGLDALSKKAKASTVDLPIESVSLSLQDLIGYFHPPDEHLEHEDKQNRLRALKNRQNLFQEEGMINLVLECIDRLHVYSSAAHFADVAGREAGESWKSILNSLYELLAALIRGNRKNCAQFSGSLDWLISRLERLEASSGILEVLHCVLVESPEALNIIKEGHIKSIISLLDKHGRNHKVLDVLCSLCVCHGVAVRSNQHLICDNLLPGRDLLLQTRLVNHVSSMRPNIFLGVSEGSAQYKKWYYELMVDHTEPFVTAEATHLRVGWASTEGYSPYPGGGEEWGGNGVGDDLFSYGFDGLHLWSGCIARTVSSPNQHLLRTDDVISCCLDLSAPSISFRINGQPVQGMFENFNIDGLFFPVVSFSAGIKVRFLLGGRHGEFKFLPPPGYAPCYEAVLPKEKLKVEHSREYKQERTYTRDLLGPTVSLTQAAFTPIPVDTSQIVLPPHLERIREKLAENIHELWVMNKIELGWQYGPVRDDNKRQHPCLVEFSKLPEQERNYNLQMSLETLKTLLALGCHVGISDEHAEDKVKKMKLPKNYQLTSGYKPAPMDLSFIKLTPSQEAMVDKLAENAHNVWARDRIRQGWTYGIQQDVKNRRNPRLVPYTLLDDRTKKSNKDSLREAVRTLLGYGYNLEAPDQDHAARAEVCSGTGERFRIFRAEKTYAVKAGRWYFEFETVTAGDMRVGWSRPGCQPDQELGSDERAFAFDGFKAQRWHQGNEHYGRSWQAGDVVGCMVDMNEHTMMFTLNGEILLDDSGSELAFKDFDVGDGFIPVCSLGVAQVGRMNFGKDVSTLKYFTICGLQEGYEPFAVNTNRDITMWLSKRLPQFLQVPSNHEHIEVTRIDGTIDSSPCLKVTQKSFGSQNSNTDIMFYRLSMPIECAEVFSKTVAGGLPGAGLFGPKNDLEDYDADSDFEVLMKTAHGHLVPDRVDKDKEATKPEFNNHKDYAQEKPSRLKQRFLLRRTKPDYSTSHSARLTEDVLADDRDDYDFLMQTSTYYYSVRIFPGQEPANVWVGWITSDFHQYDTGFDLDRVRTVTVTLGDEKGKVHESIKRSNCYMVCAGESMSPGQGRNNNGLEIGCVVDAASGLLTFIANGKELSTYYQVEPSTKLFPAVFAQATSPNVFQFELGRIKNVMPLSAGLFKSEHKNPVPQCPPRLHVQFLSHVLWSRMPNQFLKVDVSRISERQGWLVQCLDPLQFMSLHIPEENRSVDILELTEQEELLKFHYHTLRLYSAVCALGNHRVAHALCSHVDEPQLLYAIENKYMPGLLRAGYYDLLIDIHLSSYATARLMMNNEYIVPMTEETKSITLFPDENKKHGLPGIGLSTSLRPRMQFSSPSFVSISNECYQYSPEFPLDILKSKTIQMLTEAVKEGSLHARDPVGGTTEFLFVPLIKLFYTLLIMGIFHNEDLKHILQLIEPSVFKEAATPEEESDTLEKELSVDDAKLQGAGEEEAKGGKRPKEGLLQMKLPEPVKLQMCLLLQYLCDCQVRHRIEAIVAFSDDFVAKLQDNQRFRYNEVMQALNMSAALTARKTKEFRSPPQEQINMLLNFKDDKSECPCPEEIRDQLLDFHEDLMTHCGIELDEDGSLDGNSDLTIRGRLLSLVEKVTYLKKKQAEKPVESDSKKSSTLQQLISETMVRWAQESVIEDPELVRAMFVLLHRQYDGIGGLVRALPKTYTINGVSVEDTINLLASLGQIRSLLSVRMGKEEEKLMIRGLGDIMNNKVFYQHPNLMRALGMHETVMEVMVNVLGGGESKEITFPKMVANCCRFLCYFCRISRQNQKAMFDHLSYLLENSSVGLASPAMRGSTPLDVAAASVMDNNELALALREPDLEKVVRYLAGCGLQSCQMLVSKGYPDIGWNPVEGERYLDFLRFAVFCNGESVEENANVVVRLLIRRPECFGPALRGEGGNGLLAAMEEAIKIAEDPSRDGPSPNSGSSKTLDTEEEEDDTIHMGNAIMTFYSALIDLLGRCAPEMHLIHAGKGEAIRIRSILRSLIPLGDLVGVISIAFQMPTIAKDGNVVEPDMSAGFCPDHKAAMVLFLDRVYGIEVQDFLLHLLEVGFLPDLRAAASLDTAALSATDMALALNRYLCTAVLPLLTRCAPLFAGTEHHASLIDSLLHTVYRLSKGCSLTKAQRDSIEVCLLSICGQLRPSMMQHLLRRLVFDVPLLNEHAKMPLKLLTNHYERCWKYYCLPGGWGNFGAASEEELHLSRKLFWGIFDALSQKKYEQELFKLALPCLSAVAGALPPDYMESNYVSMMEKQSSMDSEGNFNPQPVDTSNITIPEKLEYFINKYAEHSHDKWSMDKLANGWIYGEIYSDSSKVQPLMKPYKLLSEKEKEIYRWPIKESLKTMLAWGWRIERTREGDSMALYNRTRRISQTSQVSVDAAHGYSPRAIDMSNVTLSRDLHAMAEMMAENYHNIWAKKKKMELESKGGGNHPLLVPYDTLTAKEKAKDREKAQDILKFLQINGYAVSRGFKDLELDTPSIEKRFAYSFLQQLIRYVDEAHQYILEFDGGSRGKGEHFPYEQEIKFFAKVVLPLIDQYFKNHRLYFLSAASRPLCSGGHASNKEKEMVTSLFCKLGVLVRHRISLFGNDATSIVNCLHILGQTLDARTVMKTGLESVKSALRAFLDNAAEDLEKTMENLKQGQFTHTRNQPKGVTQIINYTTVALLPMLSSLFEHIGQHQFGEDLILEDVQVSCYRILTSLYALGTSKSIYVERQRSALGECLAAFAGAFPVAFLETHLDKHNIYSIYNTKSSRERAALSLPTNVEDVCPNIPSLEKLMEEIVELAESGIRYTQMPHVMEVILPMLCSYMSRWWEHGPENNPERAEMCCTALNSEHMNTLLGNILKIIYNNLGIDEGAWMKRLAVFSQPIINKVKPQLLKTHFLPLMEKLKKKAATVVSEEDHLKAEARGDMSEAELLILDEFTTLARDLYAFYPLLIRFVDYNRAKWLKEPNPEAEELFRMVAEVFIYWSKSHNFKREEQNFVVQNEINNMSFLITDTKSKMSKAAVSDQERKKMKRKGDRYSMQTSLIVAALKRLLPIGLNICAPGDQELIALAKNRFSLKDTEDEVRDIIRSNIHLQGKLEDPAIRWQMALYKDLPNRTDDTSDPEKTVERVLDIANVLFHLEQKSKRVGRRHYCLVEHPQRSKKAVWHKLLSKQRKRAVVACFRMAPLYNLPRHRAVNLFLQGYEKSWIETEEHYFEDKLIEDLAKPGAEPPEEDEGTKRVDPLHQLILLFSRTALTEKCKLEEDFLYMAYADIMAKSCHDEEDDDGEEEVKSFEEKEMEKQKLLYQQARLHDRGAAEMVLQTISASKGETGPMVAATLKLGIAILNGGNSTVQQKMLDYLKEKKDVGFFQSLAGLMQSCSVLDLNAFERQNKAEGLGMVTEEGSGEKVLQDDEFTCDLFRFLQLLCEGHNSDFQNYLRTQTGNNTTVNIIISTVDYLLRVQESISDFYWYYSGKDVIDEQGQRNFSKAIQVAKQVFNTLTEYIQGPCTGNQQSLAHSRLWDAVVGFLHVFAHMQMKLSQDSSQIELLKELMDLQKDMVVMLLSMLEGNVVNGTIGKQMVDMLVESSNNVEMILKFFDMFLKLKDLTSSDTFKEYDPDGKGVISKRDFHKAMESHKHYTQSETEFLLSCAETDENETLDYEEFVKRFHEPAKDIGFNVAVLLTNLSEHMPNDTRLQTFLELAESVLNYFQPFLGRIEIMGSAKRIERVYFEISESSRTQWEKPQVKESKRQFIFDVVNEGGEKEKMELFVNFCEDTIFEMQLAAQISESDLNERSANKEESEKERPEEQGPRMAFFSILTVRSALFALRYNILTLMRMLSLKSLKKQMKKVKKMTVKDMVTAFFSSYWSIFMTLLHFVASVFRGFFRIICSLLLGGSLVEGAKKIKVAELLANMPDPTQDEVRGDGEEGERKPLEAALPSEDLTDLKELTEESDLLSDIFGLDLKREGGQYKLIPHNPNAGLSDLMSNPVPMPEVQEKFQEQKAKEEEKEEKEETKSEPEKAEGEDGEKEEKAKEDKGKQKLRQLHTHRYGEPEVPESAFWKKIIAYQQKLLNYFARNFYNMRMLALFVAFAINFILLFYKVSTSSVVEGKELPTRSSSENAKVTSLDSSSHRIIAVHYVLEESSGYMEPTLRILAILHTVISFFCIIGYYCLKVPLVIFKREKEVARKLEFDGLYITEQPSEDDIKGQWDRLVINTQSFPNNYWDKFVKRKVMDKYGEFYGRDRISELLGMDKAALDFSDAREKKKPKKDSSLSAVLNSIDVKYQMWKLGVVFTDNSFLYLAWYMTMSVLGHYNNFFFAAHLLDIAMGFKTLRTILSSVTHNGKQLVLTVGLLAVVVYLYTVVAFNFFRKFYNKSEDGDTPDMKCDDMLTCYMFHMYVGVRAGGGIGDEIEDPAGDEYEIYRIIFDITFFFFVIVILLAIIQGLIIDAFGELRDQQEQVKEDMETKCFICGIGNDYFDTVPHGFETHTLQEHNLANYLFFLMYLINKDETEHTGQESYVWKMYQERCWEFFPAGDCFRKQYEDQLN
RyR2 N-terminal fragment (residues 1–906, BT4L; RyR2^NT), yeast two-hybrid bait: residues 1-906 of Q92736
UniProt Q15413, residues 1-911: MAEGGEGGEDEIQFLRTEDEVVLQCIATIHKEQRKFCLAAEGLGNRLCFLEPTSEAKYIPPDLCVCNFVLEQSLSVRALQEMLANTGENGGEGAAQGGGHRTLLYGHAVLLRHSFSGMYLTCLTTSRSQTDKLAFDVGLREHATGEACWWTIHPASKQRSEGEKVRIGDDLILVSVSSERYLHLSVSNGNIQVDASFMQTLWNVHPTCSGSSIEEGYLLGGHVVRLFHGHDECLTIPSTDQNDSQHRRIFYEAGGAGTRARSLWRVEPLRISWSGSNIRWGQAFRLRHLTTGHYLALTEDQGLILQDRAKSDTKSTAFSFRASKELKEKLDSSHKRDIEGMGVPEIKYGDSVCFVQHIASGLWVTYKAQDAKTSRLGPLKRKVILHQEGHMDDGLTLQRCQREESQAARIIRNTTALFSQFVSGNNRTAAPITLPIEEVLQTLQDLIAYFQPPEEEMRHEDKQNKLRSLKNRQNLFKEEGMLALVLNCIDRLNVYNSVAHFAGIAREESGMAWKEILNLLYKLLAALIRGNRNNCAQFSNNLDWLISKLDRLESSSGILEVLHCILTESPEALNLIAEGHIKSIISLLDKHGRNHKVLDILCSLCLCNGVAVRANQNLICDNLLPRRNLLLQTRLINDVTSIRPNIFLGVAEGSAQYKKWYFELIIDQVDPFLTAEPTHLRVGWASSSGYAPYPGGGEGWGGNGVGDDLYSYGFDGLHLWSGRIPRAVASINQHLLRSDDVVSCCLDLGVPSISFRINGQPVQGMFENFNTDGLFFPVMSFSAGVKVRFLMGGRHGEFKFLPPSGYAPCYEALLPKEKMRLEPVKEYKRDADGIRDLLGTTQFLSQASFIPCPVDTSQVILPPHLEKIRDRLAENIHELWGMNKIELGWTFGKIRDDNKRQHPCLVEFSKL

Tests used:
[1] = target: HA-tagged cMyBP-C CT (residues 817–1274) (human) (UniProt Q14896); assay: co-IP; HEK293 cells co-expressing cMyc-tagged BT (RyR) constructs with HA-tagged cMyBP-C constructs; HA–cMyBP-C immunoprecipitated with Ab^HA from solubilised cell lysates, co-precipitated BT detected by western blotting with Ab^cMyc; non-immune rabbit IgG as negative control; densitometry
[2] = target: HA-tagged full-length cMyBP-C (cMyBP-C^FL) (human) (UniProt Q14896); assay: as above
[3] = target: HA-tagged cMyBP-C N-terminal fragment comprising domains C0–C6 (NT, residues 1–865; cMyBP-C^NT) (human) (UniProt Q14896); assay: as above
[4] = target: full-length human RyR2 (recombinant) (human) (UniProt Q92736); assay: co-IP; HEK293 cells co-expressing full-length human RyR2 with human cMyBP-C/FL; RyR2 immunoprecipitated with Ab^1093 from cell lysate, co-precipitated cMyBP-C detected by western blotting with Ab^HA; non-immune rabbit IgG as negative control
[5] = target: RyR2 N-terminal fragment (residues 1–906, BT4L; RyR2^NT), yeast two-hybrid bait (human) (UniProt Q92736); assay: two-hybrid; yeast two-hybrid: RyR2^NT (BT4L) as bait to screen a human heart cDNA library; the isolated cMyBP-C^CT clone retested against overlapping RyR2 fragments, β-galactosidase assay

## BT4 (cMyc-tagged RyR2 residues 1–759) (from UniProt Q92736 1-759) (domain or fragment)
[1]
  binding: binds

## BT4D (cMyc-tagged RyR2 residues 161–759) (from UniProt Q92736 161-759) (domain or fragment)
[1]
  binding: binds

## BT4DL (cMyc-tagged RyR2 residues 161–906) (from UniProt Q92736 161-906) (domain or fragment)
[1]
  binding: binds

## BT4EL (cMyc-tagged RyR2 residues 565–906) (from UniProt Q92736 565-906) (domain or fragment)
[1]
  binding: binds

## BT4L (cMyc-tagged RyR2 residues 1–906) (from UniProt Q92736 1-906) (domain or fragment)
[2]
  binding: binds
[3]
  binding: no binding
[1]
  binding: binds

## BT4LR1, RyR1 N-terminal fragment, amino acids 1–915 (RyR1^NT) (from UniProt P21817 1-915) (domain or fragment)
[1]
  binding: binds

## BT4LR3, RyR3 N-terminal fragment, amino acids 1–911 (RyR3^NT) (from UniProt Q15413 1-911) (domain or fragment)
[1]
  binding: binds

## BT7 (cMyc-tagged RyR2 residues 3071–3940) (from UniProt Q92736 3071-3940) (domain or fragment)
[2]
  binding: no binding
[3]
  binding: no binding
[1]
  binding: no binding

## HA-tagged full-length cMyBP-C (cMyBP-C^FL) (from UniProt Q14896 1-1274)
[4]
  binding: binds

## cMyBP-C C-terminus (residues 817–1274; cMyBP-C^CT), clone isolated from a human heart cDNA library in the yeast two-hybrid screen (from UniProt Q14896 817-1274) (domain or fragment)
[5]
  binding: binds
